The text below walks through data of patent US20240188561A1, “ADDITIVES FOR ENHANCING THE PESTICIDAL EFFECTIVENESS OF PESTICIDAL MICROORGANISMS” (priority 2021, published 2024).

In one assay the test system is Pythium. The experiment in a line: Cucumber seed pots in Pythium inoculated soil, seedling emergence and vigor. The conditions noted are these: 28 days, in words.
In a further assay the test system is Pseudomonas fluorescens. The experiment in a line: Additive compatibility with microbial growth (growth slope by OD 620 nm). The class given is cell-based. Particulars: additive 0.01-5 %, exposed 4 hours at 16° C., then tryptic soy broth 30° C., slope compared to 0% sample.
The next assay relates to Bacillus subtilis. The description is as above. It counts as cell-based. Particulars: additive 0.01-5 %, exposed 4 hours at 16° C., then tryptic soy broth 30° C., slope compared to 0% sample.
Assay [1] relates to Bacillus amyloliquefaciens. Described as above. The class given is cell-based. Particulars: additive 0.01-5 %, exposed 4 hours at 16° C., then tryptic soy broth 30° C., slope compared to 0% sample.
For another assay, the system named is Bacillus firmus. Described as above. It counts as cell-based. The conditions noted are these: additive 0.01-5 %, exposed 4 hours at 16° C., then tryptic soy broth 30° C., slope compared to 0% sample.
Assay [2] concerns Gray Mold (Botrytis cinerea). The experiment in a line: Spray trial on flowering strawberry plants, Gray Mold, marketable berries after storage. The conditions noted are these: in words. The procedure:
Five solutions were prepared as described in Table 7a. These solutions were sprayed on flowering strawberry plants showing no signs of Gray Mold (Botrytis cinerea). The bio-fungicide in the trial was Serifel® Biofungicide (Bacillus amyloliquefaciens sold by BASF Corporation). Three of the solutions included POE 10 Soybean Oil. Elevate® Fungicide (fenhexamid sold by BASF Corporation) was sprayed as the synthetic benchmark comparison.
Six applications were made at 7-day intervals to the same strawberry plants. After two weeks the plants were harvested of all berries. The berries were stored at room temperature for 3 days and then evaluated for Gray Mold. The same stored berries were evaluated again on day 5 of storage. At the end of each following week, berries were harvested, and the number of marketable berries evaluated at 3 days and 5 days after harvest.
Five solutions were prepared as described in Table 8a. These solutions were sprayed on flowering strawberry plants showing no signs of Gray Mold (Botrytis cinerea). The bio-fungicide in the trial was Serifel® Biofungicide (Bacillus amyloliquefaciens sold by BASF Corporation). Three of the solutions included PEG 400 diolate. Elevate® Fungicide (fenhexamid sold by BASF Corporation) was sprayed as the synthetic benchmark comparison.

For `CCCCCCCC/C=C\CCCCCCCC(=O)OC` [ii-4, Oleic acid methyl ester], in the assay with Pythium, the “Control of Pythium (higher emergence) when additive was added to BlightBan A506 Biofungicide treatment solutions” value is listed as “improved control”.

C6-C10 fatty acid methyl ester [ii-1]: in the assay on Pythium, the “Control of Pythium (higher emergence) when additive was added to BlightBan A506 Biofungicide treatment solutions” value is recorded as “improved control”. In the assay on Pseudomonas fluorescens, the “Influence of additive on microbial growth slope (compatibility), Pseudomonas fluorescens” value is “N”. Moreover, in the assay on Bacillus subtilis, the “Influence of additive on microbial growth slope (compatibility), Bacillus subtilis” value is “N”. In assay [1], the “Influence of additive on microbial growth slope (compatibility), Bacillus amyloliquefaciens” value is “N”. In the assay on Bacillus firmus, the “Influence of additive on microbial growth slope (compatibility), Bacillus firmus” value was “N”.

Regarding PEG 400 dioleate [v-3], the “Control of Gray Mold (Higher %-Marketable Berries) when additive was added to Serifel Biofungicide spray solutions” value in assay [2] is listed as “improved control”. For the same compound, the “Control of Pythium (higher emergence) when additive was added to Subtilex NG Biofungicide treatment solutions” value in the assay with Pythium was “improved control”.

In the case of Soya fatty acid methyl ester [ii-3], the “Control of Pythium (higher emergence) when additive was added to BlightBan A506 Biofungicide treatment solutions” value with Pythium is on record as “improved control”.

For the compound Soybean Oil POE 10 [vi-1], the “Control of Gray Mold (Higher %-Marketable Berries) when additive was added to Serifel Biofungicide spray solutions” value in assay [2] is reported as “improved control”.
